The other results are listed elsewhere or left out. Shown are side measurements of this screen, not its main read-out; they come without a call. Compounds called inactive in the main read-out are mostly missing here.
test: TAG lipid buildup reduction in H9c2 cells – cell-based, uHTS, fluorescence, primary screen (AID 651582); conditions: Nile Red lipid (TAG) fluorescence, measured here:, at 12.5 µM, cells loaded with 200 µM oleic acid

SMILES | DAPI nuclei signal change (viability), lower = more cytotoxic
COC(=O)Cc1ccc(NC(=O)c2ccc(C(C)(C)C)cc2)cc1 | -8.17%
CCOC(=O)c1c(NC(C)=O)sc2c(OCC(O)CN(CC)CC)c(Br)ccc12 (stereo not given) | -6.93%
Cc1nn2c(N3CCCC3)cc(C(C)C)nc2c1-c1ccccc1 | 11.1%
COc1cc(-c2cnc3c(NC=O)cc(-c4cccnc4)cn23)cc(OC)c1OC | -25.6%
COc1ccc2nc(NC(=O)c3cccc(OCc4c(C)noc4C)c3)sc2c1 | -17.9%
CC(C)Cc1nc2sc3c(NCc4ccco4)ncnc3c2c2c1COC(C)(C)C2 | -4.13%
CCOc1ccccc1-c1nc(-c2ccc(NC(=O)Cc3ccccc3OC)cc2)no1 | 4.23%
CCCCN1C=C(C(=O)OC)C(c2ccccc2C(F)(F)F)C(C(=O)OC)=C1 | 33.1%
COc1ccccc1N(/N=C1\Sc2ccccc2C1=O)C(C)=O | -7.23%
O=C1c2ccccc2C(=O)c2c1ccc(C(=O)N1CCCCC1)c2NCCO | -5.73%
Cc1c(O)ccc(/C=N/Nc2nc(-c3cccnc3)nc3ccccc23)c1O | -23.2%
Nc1c(Cl)cc(-c2csc(N3CCCC3c3nc4cc(Cl)c(N5CCCCC5)cc4n3CCOCCO)n2)cc1Cl (stereo not given) | 4.33%
CC(=O)n1cc(N(C(=O)CCl)c2ccc(C)cc2)c2ccccc21 | -22.2%
C[C@@]12CCC=C[C@H]1[C@H](c1ccoc1)N(Cc1ccccc1)C2=O | -39.5%
CC(C)(C)c1cc[n+](C2=C([O-])c3ccccc3C(=O)/C2=N\S(=O)(=O)c2cccs2)cc1 | -19%
N#CC1=C(SCC(=O)c2ccc(Br)cc2)NC2=C(C(=O)CCC2)C1c1ccco1 (stereo not given) | -18%
O=C(Nc1ccccc1)c1ccc(NCC2CCCO2)c(S(=O)(=O)N2CCOCC2)c1 (stereo not given) | -10.9%
O=C1COc2ccc(C(=O)CSc3nc4ccccc4c(=O)n3-c3ccc(Cl)c(Cl)c3)cc2N1 | -47.8%
C=CCNc1nc(Nc2ccc(OC)c(OC)c2)c2sc(-c3ccccc3)cc2n1 | -22.1%
Cc1ccc(-c2nn(-c3ccccc3)cc2CSC(=N)N)cc1 | -16.5%
COc1cc(-c2coc3c(C(=O)NCc4ccc(C(F)(F)F)cc4)cccc23)ccc1O | -49.7%
Cc1cc2c(cc1C)CSC(c1ccccc1O)SC2 | -12.8%
COc1cccc2sc(Nc3nc(-c4cc5ccccc5oc4=O)cs3)nc12 | 34.9%
Cc1ccc2c(=O)n3c(nc2c1)C(Cc1ccc(O)cc1)NC(=O)c1cc2ccccc2cc1-3 (stereo not given) | -30.8%

SMILES | DAPI nuclei signal change (viability), lower = more cytotoxic
O=C(N/N=C/c1ccc2c(c1)OCO2)c1cc(-c2ccncc2)nc2ccccc12 | -17.5%
CC1=CC(C)(C)Nc2ccc(OC(=O)CCN3C(=O)c4ccccc4C3=O)cc21 | -14.9%
COc1ccc(CCNc2nnc(Sc3nnnn3-c3ccccc3)s2)cc1OC | -35.1%
CCN1CCC(O)(/C=C/c2ccc(C(C)C)cc2)C(C(=O)/C=C/c2ccc(C(C)C)cc2)C1 (stereo not given) | -49%
CN=C1c2cc3cc(OC)ccc3n2CCN1Cc1ccccc1 | -15.6%
CC(C)N1CSC(=S)N(Cc2ccccc2)C1 | -42.1%
Cc1ccc2c(c1)-c1c(cnn1CC(=O)Nc1ccccc1N1CCN(C)CC1)CO2 | -24.3%
Cn1ncc2c(O/N=C(\N)c3ccc(C(C)(C)C)cc3)ncnc21 | -30.1%
COc1ccc(N2CCN(CC(=O)c3c(C)n(C)c4ccc(OC)cc34)CC2)cc1 | -19.2%
CCn1c(Cl)c(C=O)s/c1=N\S(=O)(=O)c1ccccc1 | -26.9%
Cc1cc(C)n(-c2nc3c(c(=O)[nH]c(=O)n3C)n2CC(O)COc2ccc(Cl)cc2Cl)n1 (stereo not given) | -31.2%
COC(=O)[C@@H](CC(C)C)N(Cc1ccccc1)S(=O)(=O)N(Cc1ccccc1)[C@@H](CC(C)C)C(=O)OC | -41.5%
COC(=O)C1=C(C)N(Cc2ccccc2)C(=NCc2ccc(OC)cc2)N[C@H]1c1ccccc1 | -26.3%
CC(=O)n1cc(N(C(=O)CCl)c2ccc(Cl)cc2)c2ccccc21 | -23.1%
CSc1ccc(/C=C/C(=O)c2ccc(NC(=O)Cc3ccccc3)cc2)cc1 | -2.22%
CC(C)(C)N(Cc1ccc2c(c1)OCO2)C(=O)/C=C\S(=O)c1ccccc1 (stereo not given) | -13.5%
CCOC(=O)c1ccc(NC(=O)Cn2ncc(Cl)c(Cl)c2=O)cc1 | -15.9%
O=c1c(N=Nc2ccc(O)cc2)c(-c2ccccc2)[nH]n1-c1ccc([N+](=O)[O-])cc1 | -46.7%
COc1ccc(-c2nc(N/N=C(\C)c3ccc(O)cc3)c3ccccc3n2)cc1 | -11.9%
COc1ccc(CCNC(=O)Cc2cc(OCc3ccccc3)c(OC)cc2[N+](=O)[O-])cc1OC | -26.9%
O=[N+]([O-])c1ccc(N=Nc2ccc(O)c3ccccc23)cc1 | -29.9%
CCCCN(C)C(=O)CCCCn1c(=O)[nH]c2cc(OCC)c(OCC)cc2c1=O | 4.25%
CC(C)N(C#N)c1nc(N2CCOCC2)nc(N2CCOCC2)n1 | -13%
COc1ccc(-c2csc(NC(=O)CC(C)C)n2)cc1 | 3.23%

SMILES | DAPI nuclei signal change (viability), lower = more cytotoxic
COc1ccccc1-c1cc(NC=O)c2ncc(-c3cccc(C(=O)N(C)C)c3)n2c1 | -41.4%
COc1ccccc1N1CCN(C(=O)C2c3ccccc3Oc3ccccc32)CC1 | -39.3%
CCCCNC(=O)c1cnc(Cc2c[nH]c3ccccc23)c(I)c1 | -43.9%
Cc1ccc(S(=O)(=O)c2ccc([N+](=O)[O-])o2)cc1 | -42.2%
Cc1ccc2nc(N(CCCN(C)C)C(=O)c3ccc(S(=O)(=O)N4CCc5ccccc5C4)cc3)sc2c1 | -32.4%
COC(=O)C1=C(C)N(Cc2ccccc2)C(=NCc2ccccc2)N[C@H]1c1cccc(F)c1 | -7.9%
N/C(=N\c1nc2ccccc2o1)NC(=O)c1ccc(F)cc1 | -46.9%
Cc1cc2[nH]c3c(c[n+](C)c4ccccc34)c2cc1C | -37.5%
C#CCN(C[C@H]1[C@H](OC(=O)NCC2CCCCC2)[C@H](OC(=O)NCC2CCCCC2)C[C@@H](C(=O)OC)[C@H]1C(=O)OC)S(=O)(=O)c1ccc(C)cc1 | -13.9%
CCOC(=O)C1=C(C)N(C[C@@H]2CC[C@@H](Cc3ccc(-c4ccccc4)cc3)O2)C(=O)NC1c1cccc2ccccc12 (stereo not given in full) | -11.7%
CCNC1=C(Cl)C(=O)c2ccccc2C1=O | -40.5%
CN(C)c1ccc(NC(=O)CSc2nc3ccccc3c(=O)n2C2CCCCC2)cc1 | -2.54%
CC1CCCN(C(=O)c2ccc3c(c2NCCO)C(=O)c2ccccc2C3=O)C1 (stereo not given) | -3.47%
C=CCn1c(N)c(C(=O)Nc2ccccc2)c2nc3ccccc3nc21 | 18.9%
CCN(C[C@H]1N[C@@](CC)(C(=O)OC)[C@H]2C(=O)N(Cc3ccccc3)C(=O)[C@@H]12)S(=O)(=O)c1ccc(C(C)(C)C)cc1 | -11%
CO/N=C\CC(=O)Nc1ccc(Oc2ccccc2)cc1 | -42.7%
C=C1CCN(C(C)C(=O)OC)S(=O)(=O)c2ccccc21 (stereo not given) | -29.6%
CCCCCC(/C=N/Nc1ccc(S(=O)(=O)N2CCOCC2)cc1[N+](=O)[O-])=C\c1ccccc1 | -17.6%
CCN(CC)CCNC(=O)C(Cl)=C1C(Cl)=C(Cl)C(Cl)=C1Cl | -48.1%
Nc1c(C(=O)NC2CCCC2)c2nc3ccccc3nc2n1/N=C/c1cccnc1 | 43.3%
CCCc1[nH]n(-c2ccc([N+](=O)[O-])cc2)c(=O)c1C=NCCc1c[nH]c2ccccc12 | -12.4%
COc1ccc(C2=Nn3c(nnc3-c3ccccc3OC)SC2)cc1OC | -39.1%
c1cc(C2CCCCC2)ccc1Oc1nc(N2CCOCC2)nc(N2CCOCC2)n1 | -6%
COc1ccc(NC(=O)C2Cc3c(-c4cccc(C(C)=O)c4)ccnc3O2)cc1 (stereo not given) | -47.8%

SMILES | DAPI nuclei signal change (viability), lower = more cytotoxic
O=C1N[C@@H](Cc2ccccc2)COC(=O)[C@@H](Cc2ccc(F)cc2)CC/C=C/C[C@@H]1CC(=O)N(CCO)Cc1ccccc1 | -22.4%
CCOc1cc(C(=O)N/N=C/c2cn(-c3ccccc3)nc2-c2cc3ccccc3o2)cc(OCC)c1OCC | -3.56%
CCCc1nc2oc3c(NCCCN(C)C)ncnc3c2c2c1CCCC2 | -25.3%
Cc1ccc(Nc2nc(N)nc(CCl)n2)c(C)c1 | -40.2%
Cc1cccc(C(=O)N[C@H](C(=O)Nc2ncc(C)s2)C(C)C)c1 | -43.5%
COc1ccc(/C=C/C(=O)c2cc(F)ccc2OC(=O)c2ccccc2OC)cc1OC | -41.1%
CCN(CC)c1ccc(N=Cc2ccc([N+](=O)[O-])o2)cc1 | -11%
Cc1cccc2sc(NC(=O)CN(C)S(=O)(=O)c3ccc(Br)s3)nc12 | 3.08%
Cc1ccc(Sc2ccc(NC(=O)CCl)cc2)cc1C | -40.5%
COc1cc(C(=O)N2CCN(c3cccc(C)c3C)CC2)cc(OC)c1OC | -32.1%
CC(=O)NC(c1ccc(C)cc1)c1cc(Cl)c2cccnc2c1O (stereo not given) | -15.1%
COc1ccc2[nH]c3c(c2c1)CCN1C(=O)C(CC(=O)NCc2cccc(C(F)(F)F)c2)C[C@H](C(=O)N2CCCCC2)[C@@]31CCc1ccccc1 (stereo not given in full) | -35.4%
O=C(C#Cc1ccccc1)c1ccccc1 | -43%
CCOC(=O)N1CCC(N2Cc3cccc(C(=O)Nc4ccc(CC)cc4)c3C2=O)CC1 | -0.254%
NC(c1csc(Nc2ccc(C(=O)c3ccccc3)cc2)n1)C1CCCCC1 (stereo not given) | 10.5%
CCN(CC)CCNc1cc(C)nc2c1C(=O)C(=O)C=C2N1CCCCC1 | -45.4%
COc1ccc(NS(=O)(=O)c2cccc(C(=O)N/N=C/c3cn(-c4ccccc4)nc3-c3ccccc3)c2)cc1 | -8.56%
CCc1nn2c(N3CCOCC3)cc(C)nc2c1-c1ccc(F)cc1 | -2.93%
COc1ccc(-n2ccnc2SCC(=O)NC2CCCC2)c(OC)c1 | -40.1%
COc1ccc2[nH]c3c(c2c1)CCN1C(=O)C(CC(=O)NCC24CC5CC(CC(C5)C2)C4)C[C@H](C(=O)N2CCOCC2)[C@@]31CCC1CCCC1 (stereo not given in full) | -12.2%
CC(=O)Nc1cccc(-c2ccnc3c2CC(C)(C(=O)NCc2ccc(N(C)C)cc2)O3)c1 (stereo not given) | -27.6%
c1ccc(-[n+]2nc(Nc3cccc4ccccc34)sc2-c2c3ccccc3cc3ccccc23)cc1 | 2.33%
CCN(CC)CCNC(=O)c1cc2c(-c3ccc(Cl)cc3)nn(C)c2s1 | 67.6%

— PubChem BioAssay AID651582 (Sanford-Burnham Center for Chemical Genomics, 2012)
